Results taken from patent US10815297B2, “Antagonists of IL17C for the treatment of inflammatory disorders” (MorphoSys AG, priority 2011, dated 2020).

Test: Stability in mouse serum
Format: in vitro ADME
Conditions: chimeric IgG2a, 100 μg/mL, 24 h at 37° C. in mouse serum, binding to biotin-IL17C
Description: 96 well Maxisorp plates (Nunc; #442404) were coated with avidin at a concentration of 1 μg/ml in PBS overnight at 4° C. The next day, anti-IL17 chimeric IgG2a were incubated in mouse serum for 24 h at 37° C. at a final concentration 100 μg/mL. After the incubation step the antibodies were diluted 1:100 in LowCross buffer (Candor Bioscience; #100500). As a reference the same set of antibodies were freshly diluted in LowCross buffer+1% mouse serum and incubated for 30 min at RT. Avidin coated plates were incubated with blocking buffer (Superblock blocking buffer from Pierce, #37515) and subsequently 100 μL of 0.1 μg/mL biotin-IL17C in LowCross buffer was added to blocked wells. After a washing step a serial dilution of the serum-incubated and freshly diluted IgGs was added. Binding of IgGs was detected by anti-mouse-IgG2a POD conjugated detection antibody (diluted 1:5000 in LowCross buffer) using TMB One Component HRP as substrate. The reaction was stopped by adding 1M HCl and absorbance was measured at 450 nm.

B1: MOR12760: anti-mouse IL17C HuCAL antibody; CDRs SEQ ID NO: 151-156, VL 157, VH 158 (antibody, V domains shown)
VH: EVQLVQSGAEVKKPGESLKISCKGSGYSFNNYWIAWVRQMPGKGLEWMGFIYPSNSATQYSPSFQGQVTISADKSISTAYLQWSSLKASDTAMYYCARDNEYSDSYFDVWGQGTLVTVSS
VL: DIVLTQSPATLSLSPGERATLSCRASQIVSSYLAWYQQKPGQAPRLLIYDASSRATGIPARFSGSGSGTDFTLTISSLEPEDFATYYCQQSVKSNTFGQGTKVEIKRT
modifications: VH; VL
stability in mouse serum: only moderate serum stability
